Here are results for 115 sequences from the BET-seq Pho4 binding data (Le et al. 2018).

Some of the results follow. The energies were worked out here from pooled read counts, against the library average; single values are noisy.

The target in this test is T1, Pho4 (S. cerevisiae) (UniProt P07270).
T1 sequence: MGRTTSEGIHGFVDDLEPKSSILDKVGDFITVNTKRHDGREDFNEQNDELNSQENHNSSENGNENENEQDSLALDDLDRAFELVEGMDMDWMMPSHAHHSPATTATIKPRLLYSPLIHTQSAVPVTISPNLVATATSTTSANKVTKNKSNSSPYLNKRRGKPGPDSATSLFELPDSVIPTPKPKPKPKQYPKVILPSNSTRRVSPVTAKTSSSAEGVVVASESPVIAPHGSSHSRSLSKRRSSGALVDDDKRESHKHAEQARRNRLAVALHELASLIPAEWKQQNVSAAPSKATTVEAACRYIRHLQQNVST
The test is described as follows: relative binding free energy (BET-seq); higher = weaker binding. Conditions: reference: library average.
For the sequence TCGATCACGTGTCTGT, the “relative binding free energy” value was found to be 0.26 kcal/mol.
Next, TCGAGCACGTGGATTG: 0.02 kcal/mol; TGGGGCACGTGTATTA: -0.13 kcal/mol; GTCAGCACGTGGTTGT: -0.12 kcal/mol.
In the case of GCGTGCACGTGATTAG, the “relative binding free energy” value is 0.09 kcal/mol.
The same measure for GGGTACACGTGTATGA: 0.18 kcal/mol.
Next, AGGAGCACGTGTTGGT: -0.13 kcal/mol.
Next, CGGTCCACGTGTATGG: -0.01 kcal/mol; GCGTACACGTGGGGAT: -0.03 kcal/mol.
Consider ACGTGCACGTGGGAGT, for which the “relative binding free energy” value is -0.18 kcal/mol.
Next, TGTAGCACGTGTGGGC: -0.02 kcal/mol; AAATTCACGTGAGTGA: 0.38 kcal/mol; ATCGTCACGTGGTTTT: 0.13 kcal/mol.
With GTTCGCACGTGAAATT, the “relative binding free energy” value turned out to be 0.49 kcal/mol.
Turning to GGTGGCACGTGTGCGT, the “relative binding free energy” value is -0.13 kcal/mol.
The same measure for TGCGTCACGTGCGTTA: -0.08 kcal/mol; for TGGGTCACGTGTATGG: 0.12 kcal/mol; for ATTCGCACGTGAGTGG: 0.15 kcal/mol.
As for AATTACACGTGTTGTA, the “relative binding free energy” value is 0.07 kcal/mol.
As for GAGTGCACGTGATGGG, the “relative binding free energy” value was found to be 0.29 kcal/mol.
Turning to TTGGGCACGTGTTGAA, the “relative binding free energy” value is -0.09 kcal/mol.
The same measure for TGCTGCACGTGTATAG: -0.01 kcal/mol; for GGTCGCACGTGGCGAG: -0.01 kcal/mol.
Consider AACTGCACGTGTAGGG, for which the “relative binding free energy” value was 0.03 kcal/mol.
As for CATAACACGTGTGTTG, the “relative binding free energy” value is -0.05 kcal/mol.
The same measure for GGATACACGTGAGGGG: 0.24 kcal/mol; for AGGCTCACGTGTAGAG: 0.2 kcal/mol.
Take AGGTACACGTGGTGTA: the “relative binding free energy” value is -0.07 kcal/mol.
CTTGGCACGTGTAACT: the “relative binding free energy” value was determined as 0.15 kcal/mol.
Turning to TAATTCACGTGCGAGT, the “relative binding free energy” value is 0.27 kcal/mol.
As for TTGCGCACGTGGTGTG, the “relative binding free energy” value is -0.21 kcal/mol.
Next, TTCCGCACGTGTAGTT: 0 kcal/mol; GGGGACACGTGATGCG: 0.12 kcal/mol; CATTGCACGTGGGGAT: -0.14 kcal/mol.
The same measure for AGTAGCACGTGGTGCG: -0.23 kcal/mol; for GGGTGCACGTGGGAAA: 0.04 kcal/mol.
Take TACGGCACGTGTGTTG: the “relative binding free energy” value was -0.03 kcal/mol.
As to GTAAGCACGTGGTCTT, the “relative binding free energy” value is -0.02 kcal/mol.
With TGTGTCACGTGCAGAG, the “relative binding free energy” value amounted to 0 kcal/mol.
The same measure for TAGCGCACGTGGGTAA: -0.23 kcal/mol.
The same measure for TATTTCACGTGAATGC: 0.27 kcal/mol; for ATCGGCACGTGTTAGG: -0.07 kcal/mol; for GTATTCACGTGCATGT: 0.23 kcal/mol.
Consider ATTGACACGTGTAAAG, for which the “relative binding free energy” value worked out at 0.09 kcal/mol.
Regarding ATTTTCACGTGGCCTG, the “relative binding free energy” value amounted to 0.15 kcal/mol.
The same measure for TCGTTCACGTGTTCGG: 0.28 kcal/mol; for TCAGTCACGTGATCGG: 0.27 kcal/mol.
CCTAGCACGTGTGTGG: the “relative binding free energy” value turned out to be 0.02 kcal/mol.
Next, CGTAACACGTGGGTAG: -0.14 kcal/mol; TGCGGCACGTGGGTCG: -0.18 kcal/mol.
Next, TTGGACACGTGCAGAT: 0.29 kcal/mol; TGTTTCACGTGGTACA: 0.11 kcal/mol.
Turning to ACTGGCACGTGTGAGT, the “relative binding free energy” value was -0.05 kcal/mol.
The same measure for TCGGACACGTGATGTA: 0.18 kcal/mol; for TCTTTCACGTGATTGG: 0.4 kcal/mol.
As to GTAAGCACGTGGTAAG, the “relative binding free energy” value is 0 kcal/mol.
On to TTGGCCACGTGGGGTT, for which the “relative binding free energy” value was -0.11 kcal/mol.
Next, GAGTGCACGTGATGCG: 0.05 kcal/mol.
The same measure for TTGTTCACGTGGTTGT: 0.26 kcal/mol; for TCATGCACGTGGGTGT: -0.09 kcal/mol.
AGTTGCACGTGGGTCT: the “relative binding free energy” value was -0.04 kcal/mol.
In the case of TTCACCACGTGAGGGT, the “relative binding free energy” value was determined as 0.26 kcal/mol.
The same measure for GATGGCACGTGAAGTT: 0.22 kcal/mol; for ACATGCACGTGGTGTA: -0.1 kcal/mol.
In the case of TGATTCACGTGTTGGA, the “relative binding free energy” value turned out to be 0.34 kcal/mol.
Consider AGGGCCACGTGGCGTT, for which the “relative binding free energy” value was -0.17 kcal/mol.
Next, CGAGTCACGTGGTTTT: 0.1 kcal/mol; TGTGTCACGTGAGATT: 0.43 kcal/mol; GGGGCCACGTGGTCAT: -0.12 kcal/mol.
Next, TTGGGCACGTGGAAGG: -0.01 kcal/mol; TAGTCCACGTGGGAGT: 0 kcal/mol.
Next, CCTTTCACGTGGAAGT: 0.42 kcal/mol; TAGGTCACGTGGTGGG: 0.13 kcal/mol.
In the case of GAATTCACGTGGGATT, the “relative binding free energy” value came out at 0.22 kcal/mol.
Next, TGTTGCACGTGGGGGT: -0.13 kcal/mol; TGTGACACGTGCGGAG: 0.08 kcal/mol; TGGTGCACGTGTAGGA: -0.04 kcal/mol.
In the case of ATAGACACGTGGTTGC, the “relative binding free energy” value was -0.03 kcal/mol.
Next, AGTGACACGTGGTAGT: -0.09 kcal/mol; ATGCTCACGTGAGCGG: 0.42 kcal/mol; AAATTCACGTGGGTTG: 0.19 kcal/mol.
The same measure for GTGTGCACGTGAGTCC: 0.31 kcal/mol.
On to GATCGCACGTGGTGAG, for which the “relative binding free energy” value was 0.07 kcal/mol.
Next, GGATTCACGTGGGTCT: 0.39 kcal/mol; TCAGACACGTGGGGAG: -0.07 kcal/mol.
As for GAATGCACGTGAGAAG, the “relative binding free energy” value amounted to 0.38 kcal/mol.
Regarding GAACTCACGTGTTGGT, the “relative binding free energy” value worked out at 0.34 kcal/mol.
Next, TGTGTCACGTGGTACG: 0.04 kcal/mol; TGGTTCACGTGACATT: 0.24 kcal/mol; GTTGGCACGTGTCAGT: -0.11 kcal/mol.
Next, GACTTCACGTGTGAGT: 0.42 kcal/mol; GCTGGCACGTGGGTGG: -0.19 kcal/mol.
TAGGGCACGTGAGCTT: the “relative binding free energy” value came to 0.08 kcal/mol.
As to TATCTCACGTGTGGAG, the “relative binding free energy” value was 0.25 kcal/mol.
In the case of ATTATCACGTGGTCAT, the “relative binding free energy” value turned out to be 0.06 kcal/mol.
Next, TGTACCACGTGGGAGG: -0.14 kcal/mol; GATTGCACGTGGAGGT: 0 kcal/mol; GTCATCACGTGATGTG: 0.29 kcal/mol.
Regarding TTTAGCACGTGGACGG, the “relative binding free energy” value was -0.24 kcal/mol.
The same measure for AATAGCACGTGGGGGC: -0.07 kcal/mol; for TGGATCACGTGTATAC: 0.25 kcal/mol; for ATCTGCACGTGGTTGG: -0.04 kcal/mol.
On to CTTAACACGTGTATGG, for which the “relative binding free energy” value is -0.03 kcal/mol.
With AGGTTCACGTGTTAAG, the “relative binding free energy” value is 0.23 kcal/mol.
The same measure for AGCGGCACGTGAAGTT: 0.19 kcal/mol.
On to GGTGTCACGTGGTTGT, for which the “relative binding free energy” value came to 0.11 kcal/mol.
As for TGCGGCACGTGAGTGC, the “relative binding free energy” value worked out at 0.16 kcal/mol.
As to ATGTACACGTGAGTTT, the “relative binding free energy” value amounted to 0.41 kcal/mol.
Next, CATGTCACGTGTGGCG: -0.02 kcal/mol; GGAATCACGTGAGGGT: 0.23 kcal/mol.
Take AATGTCACGTGATGCG: the “relative binding free energy” value is 0.19 kcal/mol.
With TAGCGCACGTGGTGCT, the “relative binding free energy” value is -0.14 kcal/mol.
As for GTGTGCACGTGCCGGT, the “relative binding free energy” value is -0.08 kcal/mol.
For GGAGGCACGTGGTCGA, the “relative binding free energy” value was -0.19 kcal/mol.
The same measure for TCTGGCACGTGTGTTC: -0.06 kcal/mol.
